# Data taken from PMC4336329 (PLoS ONE, 2015).
# The whole screen tested about 310,000 compounds, of which about 2,200 (0.71%) showed an effect of 50% or more. Effects have a minus sign here. This is one part of the list.
# Biological target: human ether-à-go-go-related gene (hERG) potassium channel (human, UniProt Q12809)
# Experiment: primary screen, population patch clamp on CHO cells stably expressing hERG
# human ether-à-go-go-related gene (hERG) potassium channel, sequence (Q12809 whole entry, looked up): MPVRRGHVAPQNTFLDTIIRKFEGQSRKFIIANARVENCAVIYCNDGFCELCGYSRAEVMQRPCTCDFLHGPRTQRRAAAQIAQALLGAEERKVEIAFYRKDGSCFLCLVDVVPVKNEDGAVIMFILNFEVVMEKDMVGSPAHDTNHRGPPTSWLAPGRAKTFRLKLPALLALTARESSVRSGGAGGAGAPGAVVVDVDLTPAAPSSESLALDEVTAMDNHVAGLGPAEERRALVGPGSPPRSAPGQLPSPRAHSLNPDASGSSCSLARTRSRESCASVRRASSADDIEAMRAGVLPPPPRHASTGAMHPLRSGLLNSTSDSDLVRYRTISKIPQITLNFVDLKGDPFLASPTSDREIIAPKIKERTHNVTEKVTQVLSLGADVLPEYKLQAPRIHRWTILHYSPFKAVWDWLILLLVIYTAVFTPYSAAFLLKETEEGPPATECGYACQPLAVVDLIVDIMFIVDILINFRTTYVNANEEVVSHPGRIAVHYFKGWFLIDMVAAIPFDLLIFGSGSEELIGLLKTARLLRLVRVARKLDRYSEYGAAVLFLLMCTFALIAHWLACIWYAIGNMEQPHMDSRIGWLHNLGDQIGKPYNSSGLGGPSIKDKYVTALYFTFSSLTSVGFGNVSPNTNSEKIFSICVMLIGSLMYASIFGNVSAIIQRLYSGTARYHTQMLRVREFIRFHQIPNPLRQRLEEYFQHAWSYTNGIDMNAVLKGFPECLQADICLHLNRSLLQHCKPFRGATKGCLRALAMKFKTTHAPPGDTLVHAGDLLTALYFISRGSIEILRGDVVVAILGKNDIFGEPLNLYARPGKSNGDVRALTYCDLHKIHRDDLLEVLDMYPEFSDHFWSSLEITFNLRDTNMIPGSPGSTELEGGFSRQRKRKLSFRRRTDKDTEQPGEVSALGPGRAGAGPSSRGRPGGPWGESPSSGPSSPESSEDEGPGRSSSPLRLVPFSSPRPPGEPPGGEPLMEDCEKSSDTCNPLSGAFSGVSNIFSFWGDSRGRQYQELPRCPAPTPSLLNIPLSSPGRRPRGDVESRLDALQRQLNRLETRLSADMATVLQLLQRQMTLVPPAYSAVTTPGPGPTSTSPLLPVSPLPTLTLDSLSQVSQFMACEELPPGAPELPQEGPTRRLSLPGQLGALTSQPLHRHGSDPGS
row,Compound,"hERG current change (%, negative = inhibition) at 1uM"
1,O=C(Cc1ccccc1)Oc1cccc(-n2cnnn2)c1,15.5%
2,CC(=O)n1nc2nc(C)cc(C)c2c1N,12.7%
3,CC12CCC(C(=O)NCc3ccccn3)(OC1=O)C2(C)C (centres unmarked),13.1%
4,O=S(=O)(Nc1cccnc1)c1ccccc1,13.3%
5,CCOC(=O)/C(N=Nc1c(Br)cc(Br)cc1Br)=C(\C)O,4.37%
6,CCn1c(Cc2ccccc2)nnc1SCC(=O)Nc1nc(C)c(C)s1,11.1%
7,Cc1c(C(=O)C(=O)N2CCOCC2)c2ccccc2n1Cc1ccccc1,12.9%
8,CCN1CCN(c2nc(Nc3ccc(NC(C)=O)cc3)nc(Nc3ccc(NC(C)=O)cc3)n2)CC1,7.22%
9,O=C(Nc1ccc(N2CCN(C(=O)c3cccs3)CC2)cc1)c1ccccc1F,9.75%
10,CN(C)S(=O)(=O)c1ccc(-c2csc(N/N=C/c3ccco3)n2)cc1,12.9%
11,CC(=O)c1ccc(OCCCC(=O)OCC(=O)Nc2ccc3[nH]c(=O)[nH]c3c2)cc1,10.8%
12,O=C1c2ccsc2SCCN1Cc1c(Cl)cccc1Cl,-1.73%
13,O=C(COc1ccc(Cl)cc1)N1CCN(Cc2ccccc2)CC1,3.32%
14,O=C(NCCc1ccccc1)C1CC(=O)N(C2CCCCCC2)C1 (centres unmarked),15.6%
15,N#C/C(=C/c1ccc(Sc2nc3ccccc3[nH]2)o1)c1cccc(Br)c1,20.9%
16,CC(C)(C)C(=O)NC(NC(=S)Nc1sc2c(c1C#N)CCCC2)C(Cl)(Cl)Cl (centres unmarked),17.2%
17,CC(C)N(C(=O)CSc1nc(COc2ccccc2)nc2ccccc12)C(C)C,10.5%
18,O=C(Cn1cc(C(=O)c2ccco2)c2ccccc21)Nc1ccccc1,14.9%
19,Cc1nnc2ccc(-c3cccc(NS(=O)(=O)c4cc(F)ccc4F)c3)nn12,5.12%

row,Compound,"hERG current change (%, negative = inhibition) at 1uM"
1,Cc1nnc(SCC(=O)NCc2ccc(F)cc2)[nH]c1=O,15.5%
2,O=C(NCC1CCCO1)c1ccccc1NS(=O)(=O)c1cccs1 (centres unmarked),12.6%
3,CC(OC(=O)C1CC(=O)N(Cc2ccco2)C1)C(=O)Nc1ccc(F)cc1Cl (centres unmarked),25.5%
4,O=C(NCc1ccc(F)cc1)N1CCN(C(=O)c2ccccc2)CC1,9.81%
5,COc1nc(OC)nc(N2CCC(NC(=O)C(Cc3cccc(OC)c3OC)NC(C)=O)CC2)n1 (centres unmarked),7.54%
6,S=C(NCc1ccc(Cl)cc1)NC12CC3CC(CC(C3)C1)C2,10.7%
7,CC(C)CNC(=S)NNC(=O)c1csc2c1CCC(C)C2 (centres unmarked),0.758%
8,O=C(c1cccc(Br)c1)N1CCN(c2cnn(-c3ccccc3)c(=O)c2Cl)CC1,-24.3%
9,CNc1oc(/C=C/c2cccc(OC)c2)nc1C#N,13.1%
10,Cc1ccc(NC(=O)CN(C)S(=O)(=O)c2cccc3cccnc23)cc1C,0.925%
11,O=C(O)c1ccnc(SCC(=O)c2ccccc2)c1,8.5%
12,Cc1ccc(-n2c(C)cc(C(=O)COC(=O)c3ccc[nH]c3=O)c2C)cc1,2.78%
13,Cc1nn(-c2ccccc2)c2nc(Cl)c(C(=O)O)cc12,-3.23%
14,C=CCc1cccc([C@@H]2[C@@H](C)CC[C@H]3C(=O)N4[C@@H](c5cc(OC)c(OC)c(OC)c5)c5[nH]c6ccccc6c5C[C@H]4C(=O)N23)c1,16.3%
15,O=C(O)c1c(Cl)c(Cl)c(Cl)c(Cl)c1C(=O)N1CCCC1,15.1%
16,Cc1cc(C)nc(/N=C(/NC(=O)Nc2ccc(Cl)c(Cl)c2)Nc2cccc(Cl)c2)n1,12.8%
17,COc1ccc(CCNC(=O)c2cccc(S(=O)(=O)N3CCCCCC3)c2)cc1,-21.3%
18,O=C(Cn1ncc2ccsc2c1=O)N1CCC2(CC1)OCCO2,-6.32%
19,COc1ccc(OC)c(/C=N/NC(=O)C(=O)N2CCCCCC2)c1,14.7%

row,Compound,"hERG current change (%, negative = inhibition) at 1uM"
1,O=C(Nc1ccccn1)C1COc2ccccc2O1 (centres unmarked),14.7%
2,CC(/C=C/c1ccc(OCc2ccccc2)cc1)=N\O,-2.34%
3,COc1cc(OC)c([C@H]2C=C(C)[C@H]3C[C@@H]2C3(C)C)c(OC)c1,23.6%
4,Br.CC(C)=NNc1nc(-c2ccc(N3C(=O)CCC3=O)cc2)cs1,14.8%
5,CC1CCCN(Cc2csc(N)n2)C1 (centres unmarked),7.5%
6,CC1CN(C(=O)c2cccc(S(=O)(=O)N3CCN(c4ccccc4)CC3)c2)CC(C)O1 (centres unmarked),-0.256%
7,O=C(Nc1ccccc1Cl)OC1CCCCC1,14.4%
8,COc1cccc(C(=O)NCc2ccc(N3CCN(C(=O)OC(C)(C)C)CC3)cc2)c1,4.32%
9,COc1cc(SC)ccc1C(=O)N(Cc1ccccc1)c1ccccn1,10.2%
10,O=C(O)c1cccc(NC(=O)c2ccc(CN3C(=O)c4ccccc4C3=O)cc2)c1,25.2%
11,CCc1ccc(NC(=O)CCN2C(=O)c3cccnc3C2=O)cc1,8.16%
12,CCCCN(CC)CCNC(=O)C1CCCN(S(=O)(=O)c2cccc3nsnc23)C1 (centres unmarked),-1.02%
13,COCCN(C(=O)CCC(=O)Nc1ccccn1)C(C(=O)NC1CCCC1)c1ccc(OC)cc1 (centres unmarked),10.2%
14,Cc1ccc2nc(-c3ccncc3)cc(C(=O)Nc3ccncc3)c2c1,9.22%
15,CCc1cc(C(=O)NNC(=O)CCN2CCN(c3ccccc3)CC2)sc1C,11.5%
16,CC(=O)N1CCC(N(CCN2CCOCC2)C(=S)Nc2cc(C)cc(C)c2)CC1,7.36%
17,O=S(=O)(NCc1cccnc1)c1ccc2c(c1)OCCO2,2.54%
18,CCN(CC)c1ccc([N+](=O)[O-])cc1/C=N/NC(=O)CC#N,-1.88%
